Measurements: the RNAGym collection of RNA variant scans (doi:10.7554/elife.90254)
The source gives no read counts; variants with many changes may rest on few reads.

B1: LINE1-mini (parent)
chain: GGCAGAGCUCAACACAGCGUGGCAAAGUGGCUGUGGCUAGACUGCC

Variants of: B1
Assay: self-cleavage, relative activity (ratio to wild type); higher = more cleavage; in vitro, sequencing; the parent is a self-cleaving ribozyme
Variant GGCAGACCACAACACAGCGUGGCCAAGUGGCUAUGCCUAGACUGCC [G7C U9A A24C G33A G36C] has a self-cleavage of 0.03. In the case of GGCAGACCACAACACAGCGUGGCAAAGUGGCUGUGGCUAGACUGUC [G7C U9A C45U], the self-cleavage is reported as 0.09. For GGCAGACCACAACACAGCGUAGCAAAGUGGCUAUGGCUAGACUGCC [G7C U9A G21A G33A], the self-cleavage was 0.28. For GGCAGACCACAACACAGCGUGGCAAAGUGGCUGUUGCUAGAGUGCC [G7C U9A G35U C42G], the self-cleavage was 0.03. GGCAGACCACAACACAGCGUGGCAAAGUGGCUGUGGCUACACUGCC [G7C U9A G40C] gave a self-cleavage of 0.05. Variant GGCAGACCCCAACACAGCGUGGCAAAGUGGCUGUGGCUCAACUGCC [G7C U9C A39C G40A] has a self-cleavage of 0.01. GGCAGACCCCAACACAGCGUGGCAAAGUGGCUGUGGCUAGGCUGGC [G7C U9C A41G C45G] showed a self-cleavage of 0.09. With GGCAGACCGGCACAUCGCGUGGCAAAGUGGUUGUGGCUCGACUGCC [G7C U9G C10G A11C C15U A16C C31U A39C] the self-cleavage was 0.01. With GGCAGACCGCAACACAGCGAGGCAAAGUGGCUGUGGCUAGACUGCC [G7C U9G U20A] the self-cleavage was 0.04. For GGCAGACCUCAACACAGCGAGGCAAAGUGGCUGUGGCUGGACUGCC [G7C U20A A39G], the self-cleavage was 0.03. Variant GGCAGACCUCAACACAGCGAGGCAAAGUGGCUGUGGCUAGACCGCC [G7C U20A U43C] has a self-cleavage of 0.06. In the case of GGCAGACCUCAACACAGCGGGGAAAGGUGGCUGUGGCUAGACUGCC [G7C U20G C23A A26G], the self-cleavage is reported as 0.04. For GGCAGACCUCAACACAGCGGGGCAAAGUGACUGUGGCUAGACUGCC [G7C U20G G30A], the self-cleavage was 0.16. Work on GGCAGACCUCAACACAGCGUGGCAAAGGGGAUGUGUCUAGACUGCU [G7C U28G C31A G36U C46U] yielded a self-cleavage of 0.02. With GGCAGACCUCAACACAGCGUGGCAAAGUGGCCGUGGCUAGACUUCC [G7C U32C G44U] the self-cleavage was 0.15. With GGCAGACCUCAACACAGCGUGGCAAAGUGGCUGGGGCGAGACUGCC [G7C U34G U38G] the self-cleavage was 0.03. GGCAGACCUCAACACAGCGUGGCAAAGUGGCUGUGGCAAGACUGUC [G7C U38A C45U] gave a self-cleavage of 0.05. For GGCAGACCUCAACACAGCGUGGCAAAGUGGCUGUGGCGGGUCUGCC [G7C U38G A39G A41U], the self-cleavage was 0. For GGCAGAUCUCCACACAGCGUGGCUAUGUUGCUGUGGCUAGCCUGCC [G7U A11C A24U A26U G29U A41C], the self-cleavage was 0.01. In the case of GGCAGAUCUCGACACCGAGUGGCAAAGUAUCUGUGGCUAGACUGCC [G7U A11G A16C C18A G29A G30U], the self-cleavage is reported as 0.02. Work on GGCAGAUCUCGAUACAGCGUGGCAAAGUGGCUGUGUCUAGACUGCC [G7U A11G C13U G36U] yielded a self-cleavage of 0.01. GGCAGAUCUCUACACUGCGUGGCAAAGUGGCUGUUGCUAGACUGCC [G7U A11U A16U G35U] showed a self-cleavage of 0.02. Work on GGCAGAUCUCUACACAGCGUGGCAUAGUGGCUGUGGCUAGACUGCC [G7U A11U A25U] yielded a self-cleavage of 0.04. In the case of GGCAGAUCUCUACACAGCUUGGAAAAGUGGCUGUGGCUCGACUGCC [G7U A11U G19U C23A A39C], the self-cleavage is reported as 0.01. Variant GGCAGAUCUCUACACAGCGUGGCAAAGUGGCUGUGGCUAGACUUCC [G7U A11U G44U] has a self-cleavage of 0.01. In the case of GGCAGAUCUCACCACAACGUGGCAAACUGGCUGUGGCUAGACUGCC [G7U A12C G17A G27C], the self-cleavage is reported as 0.03. Work on GGCAGAUCUCACCACAGCGUGACAAAGUGGCUGUGGCUAGACUGCC [G7U A12C G22A] yielded a self-cleavage of 0.02. GGCAGAUCUCAGCACAGCGUGGCCAAGUCGCUGUGGCUAGACUGCC [G7U A12G A24C G29C] showed a self-cleavage of 0.01. GGCAGAUCUCAGCACAGCGUGGGAAAGUGGCUGUGGCUAGUCUGCC [G7U A12G C23G A41U] showed a self-cleavage of 0.02. In the case of GGCAGAUCUCAGCACAGCGUGGCAAAGUGGCUGUGGAUAGACUGCC [G7U A12G C37A], the self-cleavage is reported as 0.01. GGCAGAUCUCAGCACAGCGUUGCAAAGUGGCUGUGGCUAGACUGCC [G7U A12G G21U] showed a self-cleavage of 0.02. For GGCAGAUCUCAUCGCAUCGUGGAAAAGUGGUUGUGGCUAGAAUGCC [G7U A12U A14G G17U C23A C31U C42A], the self-cleavage was 0.02. GGCAGAUCUCAUAACAACGUGGCAAUGUGGCUGUGGCUAAAAUGCC [G7U A12U C13A G17A A26U G40A C42A] gave a self-cleavage of 0.22. GGCAGAUCUCAUCACAGCGUGGGAAAGUGGCUGUGGCUAGACUGCC [G7U A12U C23G] gave a self-cleavage of 0.01. In the case of GGCAGAUCUCAUCACAGCGUGGCAAAGUGGCUGUCGCUAGACUGCC [G7U A12U G35C], the self-cleavage is reported as 0.01. Variant GGCAGAUCUCAUCACAGCGUGGCAAAGUGGCGGUGGCUAGACUGCC [G7U A12U U32G] has a self-cleavage of 0.02. With GGCAGAUCUCAACCCGGCGUGCCAAGGGGGCUGUGGUUAGACUGCC [G7U A14C A16G G22C A26G U28G C37U] the self-cleavage was 0. For GGCAGAUCUCAACCCAGUGGGGCAAAGUGGCUGUGGCUAAACUGUC [G7U A14C C18U U20G G40A C45U], the self-cleavage was 0. For GGCAGAUCUCAACCCAGCUUGGCAAUGUGGCUGUGGCUAGACUGCC [G7U A14C G19U A26U], the self-cleavage was 0.02. For GGCAGAUCUCAACCCAGCGUGGCAAAGUGGCUAUGGCUAGACUGCC [G7U A14C G33A], the self-cleavage was 0.05. GGCAGAUCUCAACGGAGCGUGGCAAAGUGGCUGUGGCUAGACUGCC [G7U A14G C15G] showed a self-cleavage of 0.06. Variant GGCAGAUCUCAACGCAGAGUGGCAAAGUGGCUGUGGCUAGACUGCC [G7U A14G C18A] has a self-cleavage of 0.01. GGCAGAUCUCAACGCAGCGUGGCAAAGUGGAUGUGGCUAGACUGCC [G7U A14G C31A] gave a self-cleavage of 0.11. With GGCAGAUCUCAACGCAACGUGGCAAAGAGGCUGUGGCUAGACUGCC [G7U A14G G17A U28A] the self-cleavage was 0.01. Variant GGCAGAUCUCAACGCAGCGUGACAAAGUGACUGUGGCGAGACUGCC [G7U A14G G22A G30A U38G] has a self-cleavage of 0. GGCAGAUCUCAACGCAGCGUGGCAAAGUGGCUUUGGCUAGACUGCC [G7U A14G G33U] showed a self-cleavage of 0.25. In the case of GGCAGAUCUCAACGCAGCGUGGCAAAGUGGCUGUUGCUAGACUGCC [G7U A14G G35U], the self-cleavage is reported as 0.08. For GGCAGAUCUCAACGCAGCGUGGCAAAGUGGCCGUGGCUAGACUGCC [G7U A14G U32C], the self-cleavage was 0.1. GGCAGAUCUCAACUCAGCGUGGCUAAGUGGCUGUGGCUAGACUGCC [G7U A14U A24U] showed a self-cleavage of 0.45. In the case of GGCAGAUCUCAACUCAGGGUGGCAAAGUGGCUGUGGCUAGACUGCC [G7U A14U C18G], the self-cleavage is reported as 0.09. With GGCAGAUCUCAACUCACCGUGGCAAAGUGGCUGUUGCUAGACUGCC [G7U A14U G17C G35U] the self-cleavage was 0.11. Work on GGCAGAUCUCAACUCAUCGUGGCAAAGUGGCUGUGGCUAGACUGUC [G7U A14U G17U C45U] yielded a self-cleavage of 0.06. With GGCAGAUCUCAACACCGCGUGGCAAAGUGGCUGAGGCUAGACUGCC [G7U A16C U34A] the self-cleavage was 0.01. Work on GGCAGAUCUCAACACGGCGUGGCAAAGUAGCUGUGGCUAGACUGAC [G7U A16G G29A C45A] yielded a self-cleavage of 0.21. GGCAGAUCUCAACACUGCGUGGCAAAGUGGCUCUGGCUAGACUGAC [G7U A16U G33C C45A] gave a self-cleavage of 0.03. With GGCAGAUCUCAACACUGCGCGUCAAAGUGGCUGUGGCUAGACUGCC [G7U A16U U20C G22U] the self-cleavage was 0.07.
